Experimental data reported in PMC4336329 (PLoS ONE, 2015).
About 2,200 (0.71%) of roughly 310,000 compounds showed an effect of 50% or more. The effect is printed as a negative number. The list shows a part of the results.

Each compound was assayed against human ether-à-go-go-related gene (hERG) potassium channel (human, UniProt Q12809) (assay: primary screen, population patch clamp on CHO cells stably expressing hERG).
human ether-à-go-go-related gene (hERG) potassium channel, sequence (Q12809 whole entry, looked up): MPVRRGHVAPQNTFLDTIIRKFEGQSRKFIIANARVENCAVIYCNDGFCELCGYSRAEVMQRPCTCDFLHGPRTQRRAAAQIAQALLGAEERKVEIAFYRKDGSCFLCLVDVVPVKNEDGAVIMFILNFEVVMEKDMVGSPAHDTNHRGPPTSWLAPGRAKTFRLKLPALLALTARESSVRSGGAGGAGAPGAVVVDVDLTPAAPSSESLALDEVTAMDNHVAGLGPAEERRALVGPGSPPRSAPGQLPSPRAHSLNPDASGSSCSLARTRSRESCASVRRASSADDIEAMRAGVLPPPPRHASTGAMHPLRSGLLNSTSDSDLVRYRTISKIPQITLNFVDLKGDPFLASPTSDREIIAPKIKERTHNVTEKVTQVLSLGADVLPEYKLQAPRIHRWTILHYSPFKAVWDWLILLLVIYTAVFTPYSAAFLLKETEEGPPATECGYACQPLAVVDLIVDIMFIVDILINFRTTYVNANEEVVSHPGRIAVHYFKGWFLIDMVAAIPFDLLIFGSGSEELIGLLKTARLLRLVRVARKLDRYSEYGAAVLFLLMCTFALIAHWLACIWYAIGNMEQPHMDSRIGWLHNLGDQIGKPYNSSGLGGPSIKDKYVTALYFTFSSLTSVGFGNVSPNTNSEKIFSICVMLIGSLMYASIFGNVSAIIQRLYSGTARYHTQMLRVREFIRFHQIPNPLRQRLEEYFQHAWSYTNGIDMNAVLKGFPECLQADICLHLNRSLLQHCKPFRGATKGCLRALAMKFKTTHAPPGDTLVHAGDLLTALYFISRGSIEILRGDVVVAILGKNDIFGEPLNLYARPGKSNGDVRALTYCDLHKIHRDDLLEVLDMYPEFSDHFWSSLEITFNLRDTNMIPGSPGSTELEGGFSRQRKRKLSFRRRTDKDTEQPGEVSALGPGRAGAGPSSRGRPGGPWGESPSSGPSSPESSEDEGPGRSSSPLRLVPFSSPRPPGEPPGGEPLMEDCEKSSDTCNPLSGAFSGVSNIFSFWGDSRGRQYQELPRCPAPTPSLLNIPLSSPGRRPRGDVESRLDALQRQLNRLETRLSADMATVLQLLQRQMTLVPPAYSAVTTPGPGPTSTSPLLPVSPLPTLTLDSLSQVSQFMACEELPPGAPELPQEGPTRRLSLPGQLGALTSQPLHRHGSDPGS

| SMILES | hERG current change (%, negative = inhibition) at 1uM [%] |
| --- | --- |
| O=C(Nc1cccc(F)c1)c1c(O)c2cccc3c2n(c1=O)CCC3 | 9.46 |
| CCOC(=O)C1=C(C)NC(=O)NC1c1ccc(OCC(=O)Nc2ccccc2)c(OC)c1 (centres unmarked) | -10.3 |
| COc1ccc(-c2cc(-c3cccs3)nc(OC)c2C#N)cc1OC | 24.6 |
| O=C(Nc1ccncc1)c1c(F)c(F)c(F)c(F)c1F | 17.9 |
| CCn1ccnc1CNC(=O)CC1C(=O)NCCN1Cc1ccccc1F (centres unmarked) | 12.9 |
| Br.CC1CCCC(C)N1Cc1cn2ccccc2n1 (centres unmarked) | 14.1 |
| O=[N+]([O-])/C=C/c1ccc2c(ccn2Cc2ccccc2)c1 | 11.1 |
| CCCCC(O)(CCCC)C(=O)NN(C(=O)OC)c1ccccc1 | 8.99 |
| COc1ccc(S(=O)(=O)N(CC(=O)NCc2ccco2)c2ccccc2)cc1 | -3.88 |
| COc1ccc(-c2cc(C(=O)NC(C)C)no2)cc1 | 5.8 |
| CCN(CC(=O)Nc1cc(Cl)ccc1C)C(=O)CSCc1ccc(C)cc1 | 5.64 |
| Cc1nnc(SCc2cccc(CSc3nnc(C)s3)c2)s1 | 5.44 |
| Cn1c(=O)c2c(ncn2CC(=O)N2CCc3ccccc3C2)n(C)c1=O | 6.97 |
| O=C(C(=O)N1CCOCC1)c1cn(Cc2ccccc2)c2ccccc12 | 3.33 |
| S=C(NCCNCc1ccccc1)NC1CCCCC1 | 3.54 |
| CCOc1cc(CN2CCN(CCOCCO)CC2)ccc1OC | 13.2 |
| O=C(COc1ccccc1)N1CCN(C2CCCC2)CC1.O=C(O)C(=O)O | 8.65 |
| CCc1nnc(NS(=O)(=O)c2ccc(NC(=S)NC(=O)c3ccc(OC)c(OC)c3)cc2)s1 | 9.77 |
| COc1ccc(OCCSc2nnc3c(Cl)cc(Cl)cn23)cc1 | 2.32 |
| O=C(NCc1ccco1)C(=O)NCC1OCCCN1S(=O)(=O)c1ccc(Cl)cc1 (centres unmarked) | 14.3 |
| O=C(OC1CCN(c2ccc([N+](=O)[O-])cc2)CC1)c1ccccc1 | -8.91 |
| COc1ccc(Cn2c(=O)sc3ccccc32)cc1 | -5.32 |
| Cc1cc(C)n(-c2cc(C)c(C)cc2Br)n1 | 9.84 |

| SMILES | hERG current change (%, negative = inhibition) at 1uM [%] |
| --- | --- |
| CCNC(=O)c1c(NC(=O)c2cc(-c3cc(C)ccc3O)n[nH]2)sc2c1CCCC2 | 19.2 |
| Cc1cccc(C(=O)NCC(C)NC(=O)c2cccc(C)c2)c1 (centres unmarked) | 9.7 |
| O=C(N/N=C/c1ccoc1)c1ccccc1Br | 13 |
| Cc1ccc(NC(=O)C2CCCN2C(=O)OCc2ccccc2)cc1C (centres unmarked) | 8.04 |
| Cn1cccc1Cc1nnc(SCC(=O)NC2CCCC2)n1CCc1ccccc1 | -0.0821 |
| COc1nc(-c2ccccc2)ncc1S(=O)(=O)c1ccccc1 | 9.45 |
| O=C(CSc1nnnn1C1CCCCC1)Nc1nc2c(s1)CCCC2 | -3.06 |
| c1ccn2cc(-c3ccc4c(c3)OCO4)cc2c1 | 13.3 |
| O=C(COc1ccccc1[N+](=O)[O-])OC1CCS(=O)(=O)C1 (centres unmarked) | 10.2 |
| CNS(=O)(=O)c1ccc(NC(=O)c2cc(-c3ccncc3)nc3ccc(Cl)cc23)cc1 | 17.4 |
| Cc1nc(C)c(C(=O)C2=C(O)C(=O)N(CCN(C)C)C2c2ccccc2)s1 (centres unmarked) | 15.8 |
| CCOC(=O)C1CCN(C(=O)C(=O)Nc2ccc3nc4n(c(=O)c3c2)CCCCC4)CC1 | 8.83 |
| CC(Oc1ccc(C#N)cc1)C(=O)NC1CCCC1 (centres unmarked) | 3.95 |
| CCOC(=O)COc1ccc(Br)cc1/C=C/c1[nH]c(=O)[nH]c(=O)c1[N+](=O)[O-] | 13.3 |
| CC(C)(C)NC(=O)NC(=O)Cn1cc(C(F)(F)F)ccc1=O | -1.39 |
| CCN1CCCC1CNC(=O)C1CCN(Cc2nc(-c3cccc(Br)c3)oc2C)CC1 (centres unmarked) | -0.341 |
| Cc1ccc(S(=O)(=O)N2CCN(C(=O)N3CCOCC3)C2C)cc1 (centres unmarked) | 2.63 |
| COc1ccccc1-c1nnc(SCC(=O)Nc2cc(C)on2)o1 | 11 |
| O=C(Cn1ccc([N+](=O)[O-])n1)c1ccccc1 | 9.25 |
| O=C(OCn1nnc2ccccc2c1=O)C1CCN(S(=O)(=O)c2cccs2)CC1 | -0.69 |
| Brc1cc2c(cc1Cn1c(-c3cncs3)nc3ccccc31)OCO2 | 15.2 |
| O=c1c2sccc2nc(SCc2cc(=O)n3cc(Br)ccc3n2)n1Cc1ccccn1 | 5.7 |
| O=C(Cn1c(=O)oc2ccccc21)N1CCN(c2ccccc2)CC1 | 9.54 |

| SMILES | hERG current change (%, negative = inhibition) at 1uM [%] |
| --- | --- |
| Clc1ccc(OCCn2ccnc2)c(Cl)c1 | 1.88 |
| Br.O=C(CSc1nc2ccccc2c(=O)n1-c1ccccc1)c1cccc([N+](=O)[O-])c1 | 12.7 |
| CC(=O)NCCC(=O)Nc1sc2c(c1-c1nc3ccccc3[nH]1)CCCC2 | 7.25 |
| CNC(=O)C(C)Sc1ccc(S(=O)(=O)N2CCOCC2)cn1 (centres unmarked) | 2.91 |
| CCc1nnc(NC(=O)CN2CCN(CC)CC2)s1 | 11.9 |
| O=C(NCCSCc1ccc(Cl)cc1Cl)c1ccc(CN2CCOCC2)cc1 | -7.94 |
| CCOC(=O)c1nn(-c2ccc(F)cc2)c(=O)cc1OCC(=O)N1CCN(c2ccccc2)CC1 | 15.8 |
| O=C(c1ccccc1)c1ccc(C(=O)N2CCOCC2)cc1 | 6.62 |
| CC(C)[C@H](NC(=O)c1ccco1)C(=O)N(C)Cc1ccc(C(F)(F)F)cc1 | 10.4 |
| Cc1ccc2cc(CN(CC(C)C)C(=O)C3CCCO3)c(=O)[nH]c2c1 (centres unmarked) | -1.75 |
| CCC(CC)NC(=O)c1n[nH]c(=O)c2ccccc12 | 16.9 |
| O=C(O)c1ccc(NC(=O)C2(c3ccccc3)CCCC2)cc1 | 1.88 |
| COc1ccc(-n2c(SCC(=O)NCC3CCCO3)nc3c(c2=O)SCC3)cc1 (centres unmarked) | 13.3 |
| COc1ccc2nc(SCC(=O)N3CCNC3=O)[nH]c2c1 | 2.98 |
| O=C(NC1CCN(Cc2ccccc2)CC1)c1ccccc1F | -2.19 |
| COC(C/C=C\C(=O)[C@H](C)OCc1ccccc1)OC | 13.5 |
| CC(=NCCc1ccccc1)C1=C(O)C(c2ccccc2)OC1=O (centres unmarked) | 6.39 |
| CC(=O)c1c(C)cc(C)c(CSc2nnc(-c3ccco3)o2)c1C | -0.178 |
| COc1cc(OC)c(NS(=O)(=O)c2ccc3c(c2)NC(=O)CO3)cc1Cl | 2.84 |
| Cc1ccnc(NC2(C(F)(F)F)N=C3SCCN3C2=O)c1 (centres unmarked) | 10.7 |
| S=C(NCCc1ccccc1)NCc1cccs1 | 3.73 |
| COCCN(C(=O)COC(=O)/C=C/c1ccccc1Cl)c1c(N)n(Cc2ccccc2)c(=O)[nH]c1=O | 24.5 |
| COc1ccc(S(=O)(=O)N2CCOC2CNC(=O)C(=O)NCCN2CCOCC2)cc1OC (centres unmarked) | 11.6 |

| SMILES | hERG current change (%, negative = inhibition) at 1uM [%] |
| --- | --- |
| CCCC(=O)NC(=S)Nc1cccc(NC(=O)c2ccc(Cl)cc2Cl)c1 | 10.8 |
| Cc1ccc(O)c(NC(=O)c2ccco2)c1 | 5.55 |
| O=C(c1ccc2snnc2c1)N1CCSCC1 | 10.8 |
| CCOC1(/N=C(\C)NS(=O)(=O)c2ccc(Cl)cc2)C(C)=CC(=O)C=C1C | 15.2 |
| Cc1csc2sc(-c3ccnc(SCC(=O)NCc4ccccc4)n3)c(C)c12 | 14.2 |
| Cc1cc(SCC(=O)N2CCN(C(=O)c3ccco3)CC2)c(C)cc1Br | -5.27 |
| COc1cc(C2CC(c3ccccc3)=NN2c2ccccc2)ccc1OCC(=O)O (centres unmarked) | 15 |
| CCc1ccc(NS(=O)(=O)c2ccc3[nH]cc(C(=O)NCC4CCCO4)c(=O)c3c2)cc1 (centres unmarked) | 9.38 |
| O=C(Nc1ccc(S(=O)(=O)N2CCCc3ccccc32)cc1)C1CCCO1 (centres unmarked) | -21 |
| COc1ccc(OC)c2nc(-c3ccncc3)ccc12 | 11.8 |
| CCN(CC)S(=O)(=O)c1cc(NC(=O)C(C)OC(=O)c2[nH]c(C)c(C(C)=O)c2C)ccc1C (centres unmarked) | 15.8 |
| Cc1cccc(C)c1NC(=O)CNc1ncnc2sc(C)c(C)c12 | 18.6 |
| Cc1ccc(C(=O)N/C(=C\c2ccco2)C(=O)NCCN2CCCCC2)cc1C | -33.1 |
| COC(=O)c1cc(C(=O)CSc2nc(C)cc(C)n2)ccc1O | 13.2 |
| COc1ccc(C2/C=C\CN(C(=O)c3ccc(C)cc3)[C@H](Cc3ccccc3)C(=O)N2Cc2ccc(F)cc2)cc1 (some centres unmarked) | 11.8 |
| Cc1ncn(-c2ccc(C(=O)Oc3ccccc3)cn2)n1 | 9.5 |
| c1ccc(-c2noc(CN3CCN(c4ccccc4)CC3)n2)cc1 | 7.76 |
| CN(C)S(=O)(=O)N(CC(=O)N(Cc1ccccc1)Cc1ccccc1)c1ccccc1 | 0.942 |
| CCOc1ccc(-n2ccnc(SCC(=O)NCCc3ccccc3)c2=O)cc1 | 14.9 |
| O=S(=O)(NCC(c1ccc2c(c1)OCO2)N1CCOCC1)c1ccc(Cl)cc1 (centres unmarked) | 3.93 |
